The record followed here is the BET-seq Pho4 binding data (Le et al. 2018).

Some of the results follow. Values were computed here from the reads of four pooled replicates and scatter widely.

The test has as its target T1, Pho4 (S. cerevisiae) (UniProt P07270).
T1 sequence: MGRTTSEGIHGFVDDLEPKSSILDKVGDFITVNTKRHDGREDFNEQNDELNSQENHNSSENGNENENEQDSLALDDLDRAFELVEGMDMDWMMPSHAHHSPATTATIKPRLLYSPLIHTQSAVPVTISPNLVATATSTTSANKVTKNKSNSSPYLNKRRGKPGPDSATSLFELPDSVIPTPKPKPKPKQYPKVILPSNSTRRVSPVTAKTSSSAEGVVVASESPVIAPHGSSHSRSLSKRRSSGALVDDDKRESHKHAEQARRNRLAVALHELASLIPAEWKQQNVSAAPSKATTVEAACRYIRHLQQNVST
Briefly: relative binding free energy (BET-seq); higher = weaker binding. The conditions noted are these: reference: library average.
For the sequence GCTTTCACGTGTTCTT, the “relative binding free energy” value is 0.3 kcal/mol.
TGGTACACGTGGAAGC: the “relative binding free energy” value was determined as 0.21 kcal/mol.
As for GGTCGCACGTGGGATG, the “relative binding free energy” value is -0.09 kcal/mol.
Turning to AGGGACACGTGTCGAG, the “relative binding free energy” value came to 0 kcal/mol.
For the sequence TGATTCACGTGAAGAT, the “relative binding free energy” value was 0.4 kcal/mol.
Consider TCGAGCACGTGGGTGG, for which the “relative binding free energy” value is -0.16 kcal/mol.
On to AGTAGCACGTGTATGC, for which the “relative binding free energy” value is -0.08 kcal/mol.
Regarding TCTTGCACGTGATGCG, the “relative binding free energy” value stood at 0.13 kcal/mol.
In the case of TGGCGCACGTGTCGAG, the “relative binding free energy” value was found to be 0.09 kcal/mol.
In the case of GTGGGCACGTGTCATT, the “relative binding free energy” value was -0.14 kcal/mol.
For the sequence TCTAACACGTGTAGGG, the “relative binding free energy” value turned out to be 0.13 kcal/mol.
GTTTCCACGTGAGGTA: the “relative binding free energy” value was 0.39 kcal/mol.
Turning to GGGAGCACGTGACGGA, the “relative binding free energy” value is -0.01 kcal/mol.
In the case of TTTTCCACGTGTTGCT, the “relative binding free energy” value is -0.04 kcal/mol.
Then TGAGTCACGTGGGCTT, with -0.04 kcal/mol; and GCCGGCACGTGTGGTA, with 0.04 kcal/mol.
Then GGCTGCACGTGGTAGA, with -0.06 kcal/mol; and TGAGTCACGTGCGATG, with 0.15 kcal/mol; and TTGTTCACGTGTTCCT, with 0.23 kcal/mol.
For TTGTACACGTGATATG the value was 0.15 kcal/mol; for GACTGCACGTGATGGT, 0.13 kcal/mol; for AAATGCACGTGTGTGA, 0.01 kcal/mol.
With GATGTCACGTGGTTTA, the “relative binding free energy” value turned out to be 0.15 kcal/mol.
For CCTTTCACGTGGTTTG the value was 0.29 kcal/mol; for TATGACACGTGCTGTA, 0 kcal/mol.
With TTGTTCACGTGGGTCG, the “relative binding free energy” value turned out to be 0.1 kcal/mol.
Then AGTGCCACGTGTTTGG, with -0.18 kcal/mol; and GACTTCACGTGGTAAG, with 0.5 kcal/mol.
Regarding CTTGCCACGTGTTGTG, the “relative binding free energy” value is -0.2 kcal/mol.
On to GGTTACACGTGGGATC, for which the “relative binding free energy” value was determined as 0.01 kcal/mol.
On to GTGAACACGTGCAGGT, for which the “relative binding free energy” value was 0.08 kcal/mol.
Consider GCGGTCACGTGTCAGG, for which the “relative binding free energy” value stood at 0.06 kcal/mol.
As for CGGCTCACGTGAGGCG, the “relative binding free energy” value stood at 0.42 kcal/mol.
As for ATCAGCACGTGTTTTA, the “relative binding free energy” value was -0.09 kcal/mol.
Take TATGGCACGTGACGAG: the “relative binding free energy” value was 0.13 kcal/mol.
For GCTGACACGTGTGGGA, the “relative binding free energy” value was 0.18 kcal/mol.
TGATACACGTGAGTGG: the “relative binding free energy” value was 0.33 kcal/mol.
Regarding CGAGTCACGTGCTTTG, the “relative binding free energy” value is 0.24 kcal/mol.
As to TCGGTCACGTGATGTA, the “relative binding free energy” value came to 0.24 kcal/mol.
Then GAGTTCACGTGATTCG, with 0.44 kcal/mol.
For TTAGGCACGTGAAGTA, the “relative binding free energy” value worked out at 0.21 kcal/mol.
CGGGGCACGTGGCTTA: the “relative binding free energy” value is -0.18 kcal/mol.
On to GTGTCCACGTGGGGTT, for which the “relative binding free energy” value is -0.09 kcal/mol.
As to CTTAACACGTGGGGTG, the “relative binding free energy” value is -0.33 kcal/mol.
Then GTTAACACGTGGAGTG, with -0.11 kcal/mol.
Regarding TGCGTCACGTGACTGG, the “relative binding free energy” value is 0.17 kcal/mol.
For ATAGACACGTGTTGGA the value was -0.06 kcal/mol; for GGTCGCACGTGGGGAA, -0.02 kcal/mol.
As to GAGATCACGTGGGATT, the “relative binding free energy” value was determined as 0.23 kcal/mol.
For TGGTACACGTGGATTT the value was 0.12 kcal/mol; for ACAGTCACGTGTGGGT, -0.07 kcal/mol.
Regarding TGTGTCACGTGTTGCA, the “relative binding free energy” value was found to be 0.04 kcal/mol.
Then TTGGTCACGTGTCTTA, with 0.03 kcal/mol; and GTCAGCACGTGGTGCG, with -0.07 kcal/mol.
For AGTCTCACGTGGGGCG, the “relative binding free energy” value came to 0 kcal/mol.
In the case of TTGCGCACGTGGTAAA, the “relative binding free energy” value was -0.17 kcal/mol.
As for ACGCGCACGTGGAGGG, the “relative binding free energy” value was -0.23 kcal/mol.
For TAGGTCACGTGGAGCA the value was 0.06 kcal/mol; for AAGCGCACGTGGCGGG, -0.32 kcal/mol.
TTGTGCACGTGTCTCG: the “relative binding free energy” value is 0.01 kcal/mol.
Consider TGTCGCACGTGGTTGT, for which the “relative binding free energy” value is -0.11 kcal/mol.
CTAAGCACGTGTTTTG: the “relative binding free energy” value is -0.19 kcal/mol.
Regarding TTATGCACGTGAAAAT, the “relative binding free energy” value was 0.37 kcal/mol.
For ATGGTCACGTGCTTTT the value was 0.18 kcal/mol; for AGGTTCACGTGCAGGA, 0.13 kcal/mol.
Turning to GCTGGCACGTGGTGAT, the “relative binding free energy” value was -0.09 kcal/mol.
Turning to GTAATCACGTGGGCGT, the “relative binding free energy” value came to 0.04 kcal/mol.
For TGGGGCACGTGAGCCG, the “relative binding free energy” value was 0.14 kcal/mol.
On to ATTATCACGTGGATTA, for which the “relative binding free energy” value turned out to be 0.16 kcal/mol.
With ATTGTCACGTGAAAGT, the “relative binding free energy” value came out at 0.21 kcal/mol.
As for TTATGCACGTGACGTT, the “relative binding free energy” value is -0.11 kcal/mol.
With GTGCTCACGTGTGAGT, the “relative binding free energy” value came to 0.27 kcal/mol.
Then TAGCTCACGTGAGGGT, with 0.29 kcal/mol; and TAGGCCACGTGGGGGA, with -0.22 kcal/mol.
As to CTGGGCACGTGGTCAG, the “relative binding free energy” value is -0.26 kcal/mol.
As for GATAACACGTGGGATG, the “relative binding free energy” value was -0.07 kcal/mol.
On to TGGATCACGTGAAGCT, for which the “relative binding free energy” value was found to be 0.3 kcal/mol.
Regarding GTGGGCACGTGATTTT, the “relative binding free energy” value amounted to 0.06 kcal/mol.
On to TGGTACACGTGTGCGA, for which the “relative binding free energy” value worked out at 0.08 kcal/mol.
Then TCAGACACGTGAGGGG, with 0.13 kcal/mol.
Regarding TGTAGCACGTGTGATA, the “relative binding free energy” value came out at 0.03 kcal/mol.
For TCGTTCACGTGGTTAT the value was 0.33 kcal/mol.
In the case of CTGTCCACGTGGGGGA, the “relative binding free energy” value was -0.18 kcal/mol.
In the case of ACAGACACGTGTAGGG, the “relative binding free energy” value turned out to be 0.13 kcal/mol.
In the case of GTCGGCACGTGCGCGG, the “relative binding free energy” value was -0.05 kcal/mol.
With GTGGTCACGTGGTCTG, the “relative binding free energy” value was found to be 0.16 kcal/mol.
In the case of AATGGCACGTGGGCAT, the “relative binding free energy” value is -0.14 kcal/mol.
For AGCAACACGTGGGGTA, the “relative binding free energy” value was -0.11 kcal/mol.
For TTAGGCACGTGGTTTT the value was -0.04 kcal/mol; for CAGGTCACGTGGATGT, 0.03 kcal/mol; for GGTTACACGTGCTATG, 0.16 kcal/mol.
Regarding TTTTACACGTGCGTAG, the “relative binding free energy” value came out at 0.13 kcal/mol.
Turning to TTTTTCACGTGAGTAT, the “relative binding free energy” value amounted to 0.36 kcal/mol.
Take TAGTACACGTGGAATG: the “relative binding free energy” value was 0.04 kcal/mol.
Take AAGCGCACGTGTATGT: the “relative binding free energy” value is -0.04 kcal/mol.
In the case of AGCTTCACGTGGTATG, the “relative binding free energy” value came to 0.13 kcal/mol.
For TGTCTCACGTGCTTTT, the “relative binding free energy” value stood at 0.06 kcal/mol.
GTCGGCACGTGAATGG: the “relative binding free energy” value stood at 0.15 kcal/mol.
Consider CGTCCCACGTGGGGGG, for which the “relative binding free energy” value is -0.38 kcal/mol.
Turning to TTGTCCACGTGGTATG, the “relative binding free energy” value is -0.01 kcal/mol.
Consider AATTACACGTGGGAGG, for which the “relative binding free energy” value was 0.06 kcal/mol.
As to GTGTGCACGTGGACTT, the “relative binding free energy” value turned out to be 0 kcal/mol.
As to TTTGTCACGTGTGGTA, the “relative binding free energy” value is 0.07 kcal/mol.
TGTAGCACGTGGATCG: the “relative binding free energy” value came to 0.07 kcal/mol.
On to GGTTGCACGTGATAGA, for which the “relative binding free energy” value was 0.15 kcal/mol.
For GTATGCACGTGGTACT, the “relative binding free energy” value is -0.02 kcal/mol.
On to AAATTCACGTGGGTGC, for which the “relative binding free energy” value came out at 0.2 kcal/mol.
With GATTCCACGTGAGTGG, the “relative binding free energy” value came to 0.31 kcal/mol.
GTTCGCACGTGGCTAG: the “relative binding free energy” value was -0.02 kcal/mol.
Turning to TTGGTCACGTGTCTGT, the “relative binding free energy” value came out at 0.12 kcal/mol.
As for TTTTACACGTGTGGTC, the “relative binding free energy” value is 0.21 kcal/mol.
Then TAGGTCACGTGGGTCA, with -0.02 kcal/mol; and AGGCACACGTGCGGTG, with 0 kcal/mol; and ATCGTCACGTGTTAGA, with 0 kcal/mol.
Turning to TTATTCACGTGTCGAT, the “relative binding free energy” value is 0.31 kcal/mol.
